In PubChem BioAssay AID903 (National Center for Advancing Translational Sciences (NCATS), 2007):
In all, about 55,000 compounds went through this assay and about 340 (0.62%) were called active. The shares of active, inactive and inconclusive entries below differ from those in the screen. Calls follow the shape of the dose curve; as a rule, active = well fitted cell-killing curve with a large enough effect; inconclusive = small, poorly fitted or top-dose-only effect; inactive = no such curve, though single readings can be large or run the other way. A potency beside an inconclusive call is a rough fit, not a confirmed value.

assay: qHTS Screen for Compounds that Selectively Target Cancer Cells with p53 Mutations: Cytotoxicity of p53 Null Cells at the Permissive Temperature; settings: H1299-neo p53 null cells, ATP luminescence, 24 h, 32C; series mostly up to 46.1 µM; also: nearly all actives have a fitted effect of over 55% in size
In short: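 Cells lacking p53 (H1299-neo) are plated at 600 per well and allowed to settle overnight at 37C. Test compounds (up to 46 uM) are added and held 24 hours at 32C, then ATP is quantified by luminescence.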
Potency is read from the fitted curve at half-maximal effect; tags tell the direction and shape of the fitted curve.

Structure (SMILES)	Potency
COC(=O)CS(=O)(=O)c1nc2ccccc2nc1N1CCCCC1	inactive
COc1ccc(CNc2nc(-c3ccco3)nn2C(=O)c2ccccc2Cl)cc1	inconclusive: 20 µM [cytotoxic, single point]
Cn1ncc2c(NNC(=O)c3ccccc3Cl)ncnc21	inactive
CCCN1CCN(CCCNC(=O)Cn2c(-c3cccs3)cc3ccccc32)CC1	inactive
Cc1ccc(Cl)cc1-n1ncc2c(N3CCC(C)CC3)ncnc21	inactive
O=C(NCc1ccccc1)C1CCN(S(=O)(=O)c2ccc3[nH]c(=O)ccc3c2)CC1	inactive
CC(C)OCc1cc(CN2CCN(c3ccccc3)CC2)c(O)c2ncccc12	inconclusive: 0.794 µM [cytotoxic, full curve]
Cc1cccc2c1-c1sc(C(=O)N3CCN(c4cccc(Cl)c4)CC3)cc1CO2	inconclusive: 0.199 µM [cytotoxic, full curve, poor fit]
Cc1ccccc1CSc1nc2cccnc2n1Cc1ccc(C(=O)NC2CC2)cc1	inconclusive: 11.2 µM [cytotoxic, partial curve]
COc1ccc(OC)c(S(=O)(=O)N2CC=C(c3c(C)n(CC(=O)N4CCCC4)c4ccccc34)CC2)c1	inconclusive: 3.55 µM [cytotoxic, single point]
O=C(Cn1ncc2c(Cl)cccc21)NCc1cccc(Br)c1	inconclusive: 12.6 µM [cytotoxic, partial curve]
Cc1ccc(-c2cc(C(=O)N3CCN(c4ccccc4)CC3)c3ccccc3n2)cc1C	active: 12.6 µM
COc1ccc(N2CCN(C(=O)CS(=O)(=O)c3cccc4nsnc34)CC2)cc1	inconclusive: 3.16 µM [cytotoxic, single point]
Oc1ccc(NCc2ccc(OCc3ccccc3Cl)cc2)cc1	inconclusive: 12.6 µM [cytotoxic, single point]
Cc1cccc(-n2ncc3c(N4CCCCCC4)ncnc32)c1	inconclusive: 1.58 µM [cytotoxic, full curve]
Cc1ccc(CNC(=O)C(=O)NCC(c2cccnc2)N2CCN(c3ccccc3F)CC2)cc1 (stereo not given)	inactive
CCN(CC)S(=O)(=O)c1ccc(C(=O)NCCSc2c(-c3ccc(OC)cc3)[nH]c3ccccc23)cc1	inactive
COc1cn(CC(=O)Nc2cc(C)ccc2C)c(CN2CCCCC2)cc1=O	inconclusive: 3.55 µM [cytotoxic, single point]
O=C(Nc1ccc2oc(-c3cccc(Cl)c3Cl)nc2c1)c1cccc(Br)c1	inconclusive: 25.1 µM [cytotoxic, single point]
CCS(=O)(=O)c1ncc(Cl)c(C(=O)N(Cc2ccccc2)Cc2ccco2)n1	inconclusive: 35.5 µM [cytotoxic, single point]
